# Source: the supplement of paper PMC8728848
# The list shows a part of the results.
# B1: Als3-2 (Candida albicans) (protein)
# chain: KTITGVFNSFNSLTWSNAATYNYKGPGTPTWNAVLGWSLDGTSASPGDTFTLNMPCVFKFTTSQTSVDLTAHGVKYATCQFQAGEEFMTFSTLTCTVSNTLTPSIKALGTVTLPLAFNVGGTGSSVDLEDSKCFTAGTNTVTFNDGGKKISINVDFERSNVDPKGYLTD
# Legend:
# Assay in all cases: glycan array binding signal (z-score within array); higher = stronger binding
# Details in all cases: glycan notation: IUPAC condensed, linker removed
# Fuc(a1-2)Gal = target: Fuc(a1-2)Gal
# Summary of the method: (§1)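 Glycan array data were curated from 3228 arrays in the Consortium for Functional Glycomics database and kept only where the protein sequence was available. Glycan names were converted to IUPAC-condensed notation, and columns mapping to the same glycan were averaged. The binding signal is a within-array Z-score, averaged across arrays of the same protein sequence at different concentrations or buffers and across linkers. Negative Z-scores can be read as non-binding.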
# Fuc(a1-2)Gal(b1-3)GalNAc = target: Fuc(a1-2)Gal(b1-3)GalNAc
# Summary of the method: as §1
# [1] = target: Fuc(a1-2)Gal(b1-3)GalNAc(a1-3)[Fuc(a1-2)]Gal(b1-4)Glc
# Summary of the method: as §1
# [2] = target: Fuc(a1-2)Gal(b1-3)GalNAc(a1-3)[Fuc(a1-2)]Gal(b1-4)GlcNAc
# Summary of the method: as §1
# [3] = target: Fuc(a1-2)Gal(b1-3)GalNAc(b1-3)Gal
# Summary of the method: as §1
# [4] = target: Fuc(a1-2)Gal(b1-3)GalNAc(b1-3)Gal(a1-4)Gal(b1-4)Glc
# Summary of the method: as §1
# [5] = target: Fuc(a1-2)Gal(b1-3)GalNAc(b1-4)[Neu5Ac(a2-3)]Gal(b1-4)Glc
# Summary of the method: as §1
# Fuc(a1-2)Gal(b1-3)GlcNAc = target: Fuc(a1-2)Gal(b1-3)GlcNAc
# Summary of the method: as §1
# [6] = target: Fuc(a1-2)Gal(b1-3)GlcNAc(b1-2)Man(a1-3)[Fuc(a1-2)Gal(b1-3)GlcNAc(b1-2)Man(a1-6)]Man(b1-4)GlcNAc(b1-4)GlcNAc
# Summary of the method: as §1
# [7] = target: Fuc(a1-2)Gal(b1-3)GlcNAc(b1-2)Man(a1-3)[Fuc(a1-2)Gal(b1-3)GlcNAc(b1-2)Man(a1-6)]Man(b1-4)GlcNAc(b1-4)[Fuc(a1-6)]GlcNAc
# Summary of the method: as §1
# [8] = target: Fuc(a1-2)Gal(b1-3)GlcNAc(b1-3)Gal(b1-4)Glc
# Summary of the method: as §1
# [9] = target: Fuc(a1-2)Gal(b1-3)GlcNAc(b1-3)GalNAc
# Summary of the method: as §1
# [10] = target: Fuc(a1-2)Gal(b1-3)GlcNAc(b1-3)[Fuc(a1-2)Gal(b1-3)GlcNAc(b1-6)]GalNAc
# Summary of the method: as §1
# [11] = target: Fuc(a1-2)Gal(b1-3)GlcNAc(b1-3)[Gal(b1-4)GlcNAc(b1-6)]Gal(b1-4)Glc
# Summary of the method: as §1
# [12] = target: Fuc(a1-2)Gal(b1-3)GlcNAc(b1-3)[Neu5Ac(a2-6)Gal(b1-4)GlcNAc(b1-6)]Gal(b1-4)Glc
# Summary of the method: as §1
# [13] = target: Fuc(a1-2)Gal(b1-3)GlcNAc6S
# Summary of the method: as §1
# [14] = target: Fuc(a1-2)Gal(b1-3)[Fuc(a1-4)]GlcNAc
# Summary of the method: as §1
# [15] = target: Fuc(a1-2)Gal(b1-3)[Fuc(a1-4)]GlcNAc(b1-2)Man(a1-3)[Fuc(a1-2)Gal(b1-3)[Fuc(a1-4)]GlcNAc(b1-2)Man(a1-3)]Man(b1-4)GlcNAc(b1-4)GlcNAc
# Summary of the method: as §1
# [16] = target: Fuc(a1-2)Gal(b1-3)[Fuc(a1-4)]GlcNAc(b1-2)Man(a1-3)[Fuc(a1-2)Gal(b1-3)[Fuc(a1-4)]GlcNAc(b1-2)Man(a1-6)]Man(b1-4)GlcNAc(b1-4)[Fuc(a1-6)]GlcNAc(b1-4)[Fuc(a1-6)]GlcNAc
# Summary of the method: as §1
# [17] = target: Fuc(a1-2)Gal(b1-3)[Fuc(a1-4)]GlcNAc(b1-3)[Fuc(a1-3)[Gal(b1-4)]GlcNAc(b1-6)]Gal(b1-4)Glc
# Summary of the method: as §1
# [18] = target: Fuc(a1-2)Gal(b1-3)[Fuc(a1-4)]GlcNAc(b1-3)[Gal(b1-4)GlcNAc(b1-6)]Gal(b1-4)Glc
# Summary of the method: as §1
# Fuc(a1-2)Gal(b1-4)Glc = target: Fuc(a1-2)Gal(b1-4)Glc
# Summary of the method: as §1
# Fuc(a1-2)Gal(b1-4)Glc6S = target: Fuc(a1-2)Gal(b1-4)Glc6S
# Summary of the method: as §1
# Fuc(a1-2)Gal(b1-4)GlcNAc = target: Fuc(a1-2)Gal(b1-4)GlcNAc
# Summary of the method: as §1
# [19] = target: Fuc(a1-2)Gal(b1-4)GlcNAc(b1-2)Man
# Summary of the method: as §1
# [20] = target: Fuc(a1-2)Gal(b1-4)GlcNAc(b1-2)Man(a1-3)[Fuc(a1-2)Gal(b1-4)GlcNAc(b1-2)Man(a1-6)]Man(b1-4)GlcNAc(b1-4)GlcNAc
# Summary of the method: as §1
# [21] = target: Fuc(a1-2)Gal(b1-4)GlcNAc(b1-2)Man(a1-3)[Fuc(a1-2)Gal(b1-4)GlcNAc(b1-2)Man(a1-6)]Man(b1-4)GlcNAc(b1-4)[Fuc(a1-6)]GlcNAc
# Summary of the method: as §1
# [22] = target: Fuc(a1-2)Gal(b1-4)GlcNAc(b1-2)[Fuc(a1-2)Gal(b1-4)GlcNAc(b1-4)]Man(a1-3)[Fuc(a1-2)Gal(b1-4)GlcNAc(b1-2)Man(a1-6)]Man(b1-4)GlcNAc(b1-4)GlcNAc
# Summary of the method: as §1
# [23] = target: Fuc(a1-2)Gal(b1-4)GlcNAc(b1-3)Gal(b1-4)GlcNAc
# Summary of the method: as §1
# [24] = target: Fuc(a1-2)Gal(b1-4)GlcNAc(b1-3)Gal(b1-4)GlcNAc(b1-2)Man(a1-3)[Fuc(a1-2)Gal(b1-4)GlcNAc(b1-3)Gal(b1-4)GlcNAc(b1-2)Man(a1-6)]Man(b1-4)GlcNAc(b1-4)GlcNAc
# Summary of the method: as §1
# [25] = target: Fuc(a1-2)Gal(b1-4)GlcNAc(b1-3)Gal(b1-4)GlcNAc(b1-3)Gal(b1-4)GlcNAc
# Summary of the method: as §1
# [26] = target: Fuc(a1-2)Gal(b1-4)GlcNAc(b1-3)GalNAc
# Summary of the method: as §1
# [27] = target: Fuc(a1-2)Gal(b1-4)GlcNAc(b1-3)[Fuc(a1-2)Gal(b1-4)GlcNAc(b1-6)]GalNAc
# Summary of the method: as §1
# [28] = target: Fuc(a1-2)Gal(b1-4)GlcNAc(b1-3)[Fuc(a1-3)[Gal(b1-4)]GlcNAc(b1-6)]Gal(b1-4)Glc
# Summary of the method: as §1
# [29] = target: Fuc(a1-2)Gal(b1-4)GlcNAc(b1-6)GalNAc
# Summary of the method: as §1
# [30] = target: Fuc(a1-2)Gal(b1-4)GlcNAc6S
# Summary of the method: as §1
# [31] = target: Fuc(a1-2)Gal(b1-4)[Fuc(a1-3)]GlcNAc
# Summary of the method: as §1
binder,measurement,setting,value
B1,glycan array binding signal (z-score),Fuc(a1-2)Gal,-0.54
same,glycan array binding signal (z-score),Fuc(a1-2)Gal(b1-3)GalNAc,-0.486
same,glycan array binding signal (z-score),[1],-0.676
same,glycan array binding signal (z-score),[2],-0.3
same,glycan array binding signal (z-score),[3],1.77
same,glycan array binding signal (z-score),[4],-0.284
same,glycan array binding signal (z-score),[5],-0.5
same,glycan array binding signal (z-score),Fuc(a1-2)Gal(b1-3)GlcNAc,-0.264
same,glycan array binding signal (z-score),[6],7.12
same,glycan array binding signal (z-score),[7],-0.63
same,glycan array binding signal (z-score),[8],-0.562
same,glycan array binding signal (z-score),[9],-0.63
same,glycan array binding signal (z-score),[10],2.86
same,glycan array binding signal (z-score),[11],-0.553
same,glycan array binding signal (z-score),[12],-0.229
same,glycan array binding signal (z-score),[13],-0.516
same,glycan array binding signal (z-score),[14],-0.734
same,glycan array binding signal (z-score),[15],0.831
same,glycan array binding signal (z-score),[16],-0.415
same,glycan array binding signal (z-score),[17],-0.632
same,glycan array binding signal (z-score),[18],0.876
same,glycan array binding signal (z-score),Fuc(a1-2)Gal(b1-4)Glc,-0.655
same,glycan array binding signal (z-score),Fuc(a1-2)Gal(b1-4)Glc6S,-0.225
same,glycan array binding signal (z-score),Fuc(a1-2)Gal(b1-4)GlcNAc,-0.585
same,glycan array binding signal (z-score),[19],-0.542
same,glycan array binding signal (z-score),[20],-0.706
same,glycan array binding signal (z-score),[21],-0.536
same,glycan array binding signal (z-score),[22],-0.534
same,glycan array binding signal (z-score),[23],-0.561
same,glycan array binding signal (z-score),[24],0.533
same,glycan array binding signal (z-score),[25],-0.596
same,glycan array binding signal (z-score),[26],9.17
same,glycan array binding signal (z-score),[27],1.09
same,glycan array binding signal (z-score),[28],-0.649
same,glycan array binding signal (z-score),[29],0.696
same,glycan array binding signal (z-score),[30],-0.281
same,glycan array binding signal (z-score),[31],-0.609
